# Target: human EGFR-His antigen (Homo sapiens, UniProt P00533)
# Assay: Determination of affinity of anti-EGFR antibodies using Biacore
# Conditions: Table 22, Biacore 8K, 1:1 binding model
ka [M⁻¹ s⁻¹],kd [s⁻¹],Molecule
129000,0.0125,"ZalH5: anti-EGFR antibody, zalutumumab variant: VH ZalVH5 (SEQ ID NO: 139), VL ZalVL1 (antibody) heavy: QVQLVESGGGVVQPGRSLRLSCAASGFTFSTYGMHWVRQAPGKGLEWVAVIWDDGSYKYYGDSVKGRFTISRDNSKNTLYLQMNSLRAEDTAVYYCARDGATMVRGVMKDYFDYWGQGTLVTVSS[human IgG1 constant region not spelt out] light: DIQLTQSPSSLSASVGDRVTITCRASQDISSALVWYQQKPGKAPKLLIYDASSLESGVPSRFSGSESGTDFTLTISSLQPEDFATYYCQQFNSYPLTFGGGTKVEIKRTVAAPSVFIFPPSDEQLKSGTASVVCLLNNFYPREAKVQWKVDNALQSGNSQESVTEQDSKDSTYSLSSTLTLSKADYEKHKVYACEVTHQGLSSPVTKSFNRGEC"
80500,0.0243,"ZalH3: anti-EGFR antibody, zalutumumab variant: VH ZalVH3 (SEQ ID NO: 137), VL ZalVL1 (antibody) heavy: QVQLVESGGGVVQPGRSLRLSCAASGFTFSTYGMHWVRQAPGKGLEWVAVIWDDGSYKYYGDSVKGRFTISRDNSKNTLYLQMNSLRAEDTAVYYCARDGLTMVRGVMKDYFDYWGQGTLVTVSS[human IgG1 constant region not spelt out] light: DIQLTQSPSSLSASVGDRVTITCRASQDISSALVWYQQKPGKAPKLLIYDASSLESGVPSRFSGSESGTDFTLTISSLQPEDFATYYCQQFNSYPLTFGGGTKVEIKRTVAAPSVFIFPPSDEQLKSGTASVVCLLNNFYPREAKVQWKVDNALQSGNSQESVTEQDSKDSTYSLSSTLTLSKADYEKHKVYACEVTHQGLSSPVTKSFNRGEC"
131000,0.0174,"ZalH10: anti-EGFR antibody, zalutumumab variant: VH ZalVH10 (SEQ ID NO: 144), VL ZalVL1 (antibody) heavy: QVQLVESGGGVVQPGRSLRLSCAASGFTFSSYGMHWVRQAPGKGLEWVAVIWDDGSYKYYGDSVKGRFTISRDNSKNTLYLQMNSLRAEDTAVYYCARDGATMVRGVMKDYFDYWGQGTLVTVSS[human IgG1 constant region not spelt out] light: DIQLTQSPSSLSASVGDRVTITCRASQDISSALVWYQQKPGKAPKLLIYDASSLESGVPSRFSGSESGTDFTLTISSLQPEDFATYYCQQFNSYPLTFGGGTKVEIKRTVAAPSVFIFPPSDEQLKSGTASVVCLLNNFYPREAKVQWKVDNALQSGNSQESVTEQDSKDSTYSLSSTLTLSKADYEKHKVYACEVTHQGLSSPVTKSFNRGEC"
79500,0.00761,"ZalH7: anti-EGFR antibody, zalutumumab variant: VH ZalVH7 (SEQ ID NO: 141), VL ZalVL1 (antibody) heavy: QVQLVESGGGVVQPGRSLRLSCAASGFTFSSYGMHWVRQAPGKGLEWVAVIWEDGSYKYYGDSVKGRFTISRDNSKNTLYLQMNSLRAEDTAVYYCARDGITMVRGVMKDYFDYWGQGTLVTVSS[human IgG1 constant region not spelt out] light: DIQLTQSPSSLSASVGDRVTITCRASQDISSALVWYQQKPGKAPKLLIYDASSLESGVPSRFSGSESGTDFTLTISSLQPEDFATYYCQQFNSYPLTFGGGTKVEIKRTVAAPSVFIFPPSDEQLKSGTASVVCLLNNFYPREAKVQWKVDNALQSGNSQESVTEQDSKDSTYSLSSTLTLSKADYEKHKVYACEVTHQGLSSPVTKSFNRGEC"
76500,0.0369,"ZalH8: anti-EGFR antibody, zalutumumab variant: VH ZalVH8 (SEQ ID NO: 142), VL ZalVL1 (antibody) heavy: QVQLVESGGGVVQPGRSLRLSCAASGFTFSSYGMHWVRQAPGKGLEWVAVIWDDGSYKYYGDSVKGRFTISRDNSKNTLYLQMNSLRAEDTAVYYCARDGLTMVRGVMKDYFDYWGQGTLVTVSS[human IgG1 constant region not spelt out] light: DIQLTQSPSSLSASVGDRVTITCRASQDISSALVWYQQKPGKAPKLLIYDASSLESGVPSRFSGSESGTDFTLTISSLQPEDFATYYCQQFNSYPLTFGGGTKVEIKRTVAAPSVFIFPPSDEQLKSGTASVVCLLNNFYPREAKVQWKVDNALQSGNSQESVTEQDSKDSTYSLSSTLTLSKADYEKHKVYACEVTHQGLSSPVTKSFNRGEC"
87400,0.00812,"ZalH2: anti-EGFR antibody, zalutumumab variant: VH ZalVH2 (SEQ ID NO: 136), VL ZalVL1 (antibody) heavy: QVQLVESGGGVVQPGRSLRLSCAASGFTFSTYGMHWVRQAPGKGLEWVAVIWEDGSYKYYGDSVKGRFTISRDNSKNTLYLQMNSLRAEDTAVYYCARDGITMVRGVMKDYFDYWGQGTLVTVSS[human IgG1 constant region not spelt out] light: DIQLTQSPSSLSASVGDRVTITCRASQDISSALVWYQQKPGKAPKLLIYDASSLESGVPSRFSGSESGTDFTLTISSLQPEDFATYYCQQFNSYPLTFGGGTKVEIKRTVAAPSVFIFPPSDEQLKSGTASVVCLLNNFYPREAKVQWKVDNALQSGNSQESVTEQDSKDSTYSLSSTLTLSKADYEKHKVYACEVTHQGLSSPVTKSFNRGEC"
45400,0.00234,"ZalH9: anti-EGFR antibody, zalutumumab variant: VH ZalVH9 (SEQ ID NO: 143), VL ZalVL1 (antibody) heavy: QVQLVESGGGVVQPGRSLRLSCAASGFTFSSYGMHWVRQAPGKGLEWVAVIWDDGSYKYYGDSVKGRFTISRDNSKNTLYLQMNSLRAEDTAVYYCARDGVTMVRGVMKDYFDYWGQGTLVTVSS[human IgG1 constant region not spelt out] light: DIQLTQSPSSLSASVGDRVTITCRASQDISSALVWYQQKPGKAPKLLIYDASSLESGVPSRFSGSESGTDFTLTISSLQPEDFATYYCQQFNSYPLTFGGGTKVEIKRTVAAPSVFIFPPSDEQLKSGTASVVCLLNNFYPREAKVQWKVDNALQSGNSQESVTEQDSKDSTYSLSSTLTLSKADYEKHKVYACEVTHQGLSSPVTKSFNRGEC"
131000,0.0275,"ZalH14: anti-EGFR antibody, zalutumumab variant: VH ZalVH14 (SEQ ID NO: 148), VL ZalVL1 (antibody) heavy: QVQLVESGGGVVQPGRSLRLSCAASGFTFSTYGMHWVRQAPGKGLEWVAVIWYDGSNKYYADSVKGRFTISRDNSKNTLYLQMNSLRAEDTAVYYCARDGITMVRGVMKDYFDYWGQGTLVTVSS[human IgG1 constant region not spelt out] light: DIQLTQSPSSLSASVGDRVTITCRASQDISSALVWYQQKPGKAPKLLIYDASSLESGVPSRFSGSESGTDFTLTISSLQPEDFATYYCQQFNSYPLTFGGGTKVEIKRTVAAPSVFIFPPSDEQLKSGTASVVCLLNNFYPREAKVQWKVDNALQSGNSQESVTEQDSKDSTYSLSSTLTLSKADYEKHKVYACEVTHQGLSSPVTKSFNRGEC"
95500,0.000187,"ZalH13: anti-EGFR antibody, zalutumumab variant: VH ZalVH13 (SEQ ID NO: 147), VL ZalVL1 (antibody) heavy: QVQLVESGGGVVQPGRSLRLSCAASGFTFSSYAMHWVRQAPGKGLEWVAVIWDDGSYKYYGDSVKGRFTISRDNSKNTLYLQMNSLRAEDTAVYYCARDGITMVRGVMKDYFDYWGQGTLVTVSS[human IgG1 constant region not spelt out] light: DIQLTQSPSSLSASVGDRVTITCRASQDISSALVWYQQKPGKAPKLLIYDASSLESGVPSRFSGSESGTDFTLTISSLQPEDFATYYCQQFNSYPLTFGGGTKVEIKRTVAAPSVFIFPPSDEQLKSGTASVVCLLNNFYPREAKVQWKVDNALQSGNSQESVTEQDSKDSTYSLSSTLTLSKADYEKHKVYACEVTHQGLSSPVTKSFNRGEC"
120000,0.0144,"ZalH12: anti-EGFR antibody, zalutumumab variant: VH ZalVH12 (SEQ ID NO: 146), VL ZalVL1 (antibody) heavy: QVQLVESGGGVVQPGRSLRLSCAASGFTFSTYGMHWVRQAPGKGLEWVAVIWDDGSNKYYGDSVKGRFTISRDNSKNTLYLQMNSLRAEDTAVYYCARDGITMVRGVMKDYFDYWGQGTLVTVSS[human IgG1 constant region not spelt out] light: DIQLTQSPSSLSASVGDRVTITCRASQDISSALVWYQQKPGKAPKLLIYDASSLESGVPSRFSGSESGTDFTLTISSLQPEDFATYYCQQFNSYPLTFGGGTKVEIKRTVAAPSVFIFPPSDEQLKSGTASVVCLLNNFYPREAKVQWKVDNALQSGNSQESVTEQDSKDSTYSLSSTLTLSKADYEKHKVYACEVTHQGLSSPVTKSFNRGEC"

# From patent US20260232830A1, “ANTIGEN BINDING MOLECULE SPECIFICALLY BINDING TO EGFR AND MUC1, DRUG CONJUGATE THEREOF, AND MEDICAL USE THEREOF” (Jiangsu Hengrui Pharmaceuticals Co., Ltd., priority 2023, published 2026)
